# Measured values reported in PMC4336329 (PLoS ONE, 2015).
# Screen size: about 310,000 compounds; about 2,200 (0.71%) showed an effect of 50% or more. The effect is printed as a negative number. Some of the results follow. Where a SMILES comes first, the peptide text is derived from it. The star is where a group is joined. OBn = c1ccc(CO*)cc1
# Target: human ether-à-go-go-related gene (hERG) potassium channel (human, UniProt Q12809)
# Assay: primary screen, population patch clamp on CHO cells stably expressing hERG
# Sequence of human ether-à-go-go-related gene (hERG) potassium channel (Q12809 whole entry, looked up): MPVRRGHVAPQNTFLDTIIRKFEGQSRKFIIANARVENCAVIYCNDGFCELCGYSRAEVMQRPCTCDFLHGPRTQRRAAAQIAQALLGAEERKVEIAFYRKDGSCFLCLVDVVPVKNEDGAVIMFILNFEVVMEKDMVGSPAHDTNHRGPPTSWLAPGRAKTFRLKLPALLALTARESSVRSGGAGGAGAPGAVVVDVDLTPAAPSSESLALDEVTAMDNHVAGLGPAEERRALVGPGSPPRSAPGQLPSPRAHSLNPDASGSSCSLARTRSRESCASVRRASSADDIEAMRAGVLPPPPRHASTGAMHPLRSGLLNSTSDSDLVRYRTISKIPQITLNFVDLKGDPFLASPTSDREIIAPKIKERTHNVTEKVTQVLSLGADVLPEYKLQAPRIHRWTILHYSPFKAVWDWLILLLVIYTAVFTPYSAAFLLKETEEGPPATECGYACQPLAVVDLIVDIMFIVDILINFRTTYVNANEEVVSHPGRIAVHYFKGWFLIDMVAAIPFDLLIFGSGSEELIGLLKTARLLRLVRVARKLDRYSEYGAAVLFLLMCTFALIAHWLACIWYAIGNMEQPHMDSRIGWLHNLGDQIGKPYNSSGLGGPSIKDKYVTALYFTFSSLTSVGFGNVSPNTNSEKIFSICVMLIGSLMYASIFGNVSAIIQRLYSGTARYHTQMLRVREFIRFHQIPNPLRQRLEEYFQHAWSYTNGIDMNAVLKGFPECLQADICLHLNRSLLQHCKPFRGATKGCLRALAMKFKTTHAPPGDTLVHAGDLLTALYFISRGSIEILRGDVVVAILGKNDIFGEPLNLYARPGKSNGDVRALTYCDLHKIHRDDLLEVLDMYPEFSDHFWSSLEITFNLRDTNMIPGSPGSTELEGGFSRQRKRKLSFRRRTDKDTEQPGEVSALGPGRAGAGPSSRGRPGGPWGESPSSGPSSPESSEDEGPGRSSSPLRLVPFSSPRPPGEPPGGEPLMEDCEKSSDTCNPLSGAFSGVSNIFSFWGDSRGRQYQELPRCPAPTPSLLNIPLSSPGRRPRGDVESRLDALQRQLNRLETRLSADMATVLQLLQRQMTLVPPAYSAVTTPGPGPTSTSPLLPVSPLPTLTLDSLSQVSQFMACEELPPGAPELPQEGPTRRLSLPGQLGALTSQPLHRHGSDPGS
row,SMILES,"hERG current change (%, negative = inhibition) at 1uM [%]"
1,Cc1ccc(NC(=O)c2c(C)nc3sc(C(=O)NC4CCCC4)c(N)c3c2-c2ccco2)c(C)c1,5.2
2,COc1ccc(S(=O)(=O)NCCNC(=O)N2CCOCC2)cc1,-27.4
3,CCOc1ccccc1C(=O)Nc1cccc2ccccc12,13.7
4,COc1cc(C(=O)OCC(=O)NC2CCS(=O)(=O)C2)ccc1OCc1c(C)noc1C (stereo not shown),6.59
5,Cc1cccc(C2(c3cccc(C)c3)CC2C(=O)NCC2CCCO2)c1 (stereo not shown),9.01
6,Cc1cc2cc(CNC(=S)Nc3ccc(OC(F)(F)F)cc3)ccc2[nH]1,21.9
7,COc1cc(C(C)=O)ccc1OCC(O)Cn1nc(C)c(C(C)=O)c1C (stereo not shown),5
8,CCOC(=O)c1sc(NC(=O)CSc2nc(C)cc(-c3ccccc3)n2)c(C#N)c1C,12.6
9,COc1cccc(Cn2c(-c3nonc3N)nc3ccccc32)c1,0.388
10,O=C1CN(C(=O)COc2ccc(Br)cc2Br)c2ccccc2N1,5.89
11,O=C(NC1=NC2CCCCC2N1)c1ccccc1 (stereo not shown),12.5
12,Cc1cccc(NC(=O)C2CCCN(c3cnccn3)C2)c1 (stereo not shown),10.7
13,CN(C)S(=O)(=O)c1cccc(-c2nnc3n2CCCCC3)c1,6.29
14,O=P(O)(O)COc1ccccc1P(=O)(c1ccccc1)c1ccccc1,7.28
15,COc1ccc(N2C(=O)CSC2c2ccncc2)cc1 (stereo not shown),10.2
16,Cc1nn(CC#N)c(=O)n1-c1ccc(C(C)C)cc1,11.3
17,CC1(C)NC(=O)N(CC(O)CN(Cc2ccccc2)Cc2ccccc2)C1=O (stereo not shown),9.31
18,Cc1ccc(CNCc2ccc3c(c2)OCO3)cc1,10.3
19,O=C(O)C1=C[C@@H](c2csc3ccccc23)C[C@@H](OCCCCO)O1,9.35
20,NC(=O)C1=C[C@@H](c2csc3ccccc23)C[C@@H](OCc2ccc(CO)cc2)O1,4.37

row,SMILES,"hERG current change (%, negative = inhibition) at 1uM [%]"
1,Cc1ccc(C)c(NC(=S)N2CCN(Cc3ccccc3)CC2)c1,20.8
2,O=C(NC1CCCCCCC1)C1c2ccccc2C(=O)N1Cc1ccco1 (stereo not shown),3.37
3,O=C(/C=C/c1ccccc1[N+](=O)[O-])N1CCc2ccccc2C1,4.33
4,Cc1ccn2c(=O)nc(SCC(=O)N3CCCCCC3)nc2c1,19.6
5,C=CCSc1nc2sc3c(c2c(=O)[nH]1)CCC3,2.57
6,Cc1ccccc1C(=O)Nc1ccc2c(c1)CCCN2C(=O)c1cccs1,4.77
7,COc1ccc(Cn2ccnc2CO)cc1[N+](=O)[O-].Cl,7.25
8,CC(CNC(=O)CN1C(=O)NC2(CCOc3ccccc32)C1=O)c1ccccc1 (stereo not shown),3.15
9,COc1ccccc1NCc1cc(=O)oc2c(C)c(O)ccc12,14.9
10,Cc1cccc(Nc2nc(-c3ccccc3)c(C(=O)Nc3cccnc3)s2)c1,9.26
11,Cc1cc(C)c2c3c(sc2n1)C(=O)N(C)CC(=O)N3,5.35
12,CCc1c(C2(O)CCCCC2)[nH]c2cnccc12,7.22
13,Cc1cccc(N(CC(=O)NCCc2ccccc2)C(=O)c2csnn2)c1,10
14,Cc1ccc2[nH]c3c(c2c1)CN(C(C)C)CC3,10.6
15,CSc1ccc(C(=O)C2CCCN(C(=O)c3nn(C)c(=O)c4ccccc34)C2)cc1 (stereo not shown),-17.4
16,O=C(OCC(=O)c1c[nH]c2ccccc12)c1ccc(Br)o1,-13.4
17,COc1cc(NC(=O)c2cc([N+](=O)[O-])ccc2NC(=O)CNC2CCCCC2C)cc(OC)c1 (stereo not shown),17.4
18,COC(=O)[C@H](Cc1ccccc1)NC(=O)[C@@H](N)CC(=O)OCc1ccccc1.[Cl-] (H-Asp(OBn)-Phe-OMe),19.7
19,CC(C)OCc1ccc(C(=O)N2CCN(S(=O)(=O)c3ccc(Br)s3)CC2)cc1,6.71
20,CCOC(=O)CNC(=O)CSc1nnc(-c2c[nH]c3ccccc23)n1CC,4.73

row,SMILES,"hERG current change (%, negative = inhibition) at 1uM [%]"
1,COc1cc(/C=N/NC(=O)c2csc3c2CCCC3)cc(OC)c1O,9.45
2,NC(=O)c1ccc(NC(=O)C2CCCO2)cc1 (stereo not shown),2.68
3,CC(Oc1ccc(Cl)cc1Cl)c1ccn[nH]1 (stereo not shown),4.3
4,CCNC(=O)N1CCNC(=O)C1CC(=O)OC (stereo not shown),9.95
5,CC/S(=N\S(=O)(=O)c1ccc(C)cc1)c1ccccc1 (stereo not shown),11.7
6,O=C(NCCCl)c1ccc(OCc2ccccc2)cc1Cl,12.5
7,COC(=O)C1=C(c2ccc(OC)c(OC)c2)C[C@@H]2CC[C@H]1N2C(=O)NCc1ccc(F)cc1,1.04
8,CCn1c(=O)n(CC(=O)Nc2cc(OC)ccc2OC)c(=O)c2ccccc21,12.1
9,CCS(=O)(=O)N1CCN(C(=O)c2cccs2)CC1,4.6
10,O=C(COC(=O)/C=C/c1ccc(OC(F)F)cc1)NCCN1C(=O)CSC1=O,-13.5
11,CNC(=O)/C=C/c1cc(C(=O)c2ccc(Cl)cc2Cl)cn1C,14.9
12,O=C(NCc1cccnc1)c1ccccc1Br,-10.5
13,CCOC(=O)C(NCCCCl)c1ccccc1 (stereo not shown),5.7
14,CN(C)C(=O)c1cc([N+](=O)[O-])cc([N+](=O)[O-])c1N(C)C,8.23
15,COc1ccc(C(=O)N/C(=C\c2cccc3ccccc23)C(=O)N2CCN(C)CC2)cc1,-20.8
16,COc1ccccc1/C=C/C(=O)c1cc(Br)ccc1OC(=O)c1ccco1,14.8
17,O=C(Nc1ccccc1)c1ccc(-c2ccc(Br)cc2)o1,11.4
18,CCOC(=O)C1CCCN(C(=O)c2cn(CC)c3ccc(S(=O)(=O)N(C)C)cc3c2=O)C1 (stereo not shown),10.6
